Hit rate of the full screen: of about 94,000 compounds, about 6,200 (6.6%) were called active. This list was built around the results that the source calls inconclusive (neither active nor inactive); the mix of calls is not that of the screen. The call rests on the fitted dose curve; in most records, active means well fitted inhibition curve with a large enough effect; inconclusive means small, poorly fitted or top-dose-only effect; inactive means flat fitted curve, though single readings scatter. Potencies of inconclusive entries are doubtful fits and often do not repeat.
Test: Cytotoxic Profiling in HEK 293 Cell Line of Diverse Libraries Using Quantitative High-Throughput Screening; further: nearly all actives have a fitted effect of over 60% in size
Conditions: HEK 293 viability, ATP luminescence (CellTiter-Glo), 48-72 h; activity change, negative = cytotoxicity: at 115 µM (top of the series) unless noted; series mostly up to 115 µM
Method in brief: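 ATP-coupled CellTiter-Glo luminescence served as viability read-out, recorded 10 min after reagent addition at room temperature. HEK 293 cells, 250 cells/well, had been incubated with pintool-transferred compound for 48 or 72 hr at 37 degree Celsius.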
On the % scale 0 is the no-effect control and ±100 the full control effect; potency means the concentration at half of the fitted maximal effect; tags describe the fitted curve by direction and shape.

Question: For `CCc1cc(CNC(=O)C2CCN(c3nc(-c4ccccc4)nc4c3CCC4)CC2)on1`, which Potency is on record?
Answer: inconclusive: 28.2 µM [inhibitor, full curve]

Question: Which Potency does the source give for `Cn1ncc2c(C(=O)Nc3cccc(C(F)(F)F)c3)cc(-c3ccc(C(F)(F)F)cc3)nc21` here?
Answer: active: 11.2 µM

Question: With `Cc1cnc(CC2CCCN(Cc3ccc(F)cc3F)C2)n1Cc1ccccc1` (stereo not given) as the compound, how does the Potency read?
Answer: inconclusive: 50.1 µM [inhibitor, partial curve, poor fit]

Question: For `COc1ccc2c(c1)c(CN1CCCC(c3nc(C(C)C)no3)CCNC(=O)CC1)cn2C(C)C` (stereo not given), which Potency is on record?
Answer: inconclusive: 79.4 µM [inhibitor, partial curve, poor fit]

Question: With `COc1ccccc1-c1cccc(CN2CCCC(C(=O)N3CCCC3)C2)c1` (stereo not given) as the compound, how does the Potency read?
Answer: inconclusive: 56.2 µM [inhibitor, partial curve, poor fit]

Question: For `O=C(c1cccs1)N1CCC(Cc2nc(C3CC3)n[nH]2)CC1`, which “outcome” value is on record?
Answer: inactive

Question: For `CCc1ncc(C(=O)N2CCN(Cc3ccccc3C#N)CC2)cn1`, which “activity change, negative = cytotoxicity” value is on record?
Answer: inactive: 1.82%

Question: With `Cc1cccc2nc(C(=O)N3CCCC(c4[nH]ncc4-c4ccccc4)C3)cn12` (stereo not given) as the compound, how does the Potency read?
Answer: inconclusive: 56.2 µM [inhibitor, partial curve, poor fit]

Question: With `O=C(Nc1ccc(Cl)cc1)N[C@H]1CO[C@H]2[C@@H]1OC[C@H]2O` as the compound, how does the “outcome” value read?
Answer: inactive [at 172 µM]

Question: Which Potency does the source give for `O=C(C1CCC1)N1CCC(c2nc(-c3ccc4nc[nH]c4c3)no2)CC1` here?
Answer: inconclusive: 89.1 µM [inhibitor, single point]

Question: For `Cc1ccccc1C(=O)N1CCCC1C(=O)N1CCC(N2Cc3ccccc3C2=O)CC1` (stereo not given), which “activity change, negative = cytotoxicity” value is on record?
Answer: inactive: 0.243%

Question: Which Potency does the source give for `CCn1c2c(c(=O)n1-c1ccccc1)CCN(CCCc1ccccc1)C2` here?
Answer: inconclusive: 112 µM [inhibitor, partial curve, poor fit]

Question: For `O=C1CCN(S(=O)(=O)c2ccccc2)CCCN(C(=O)CCCc2ccccc2)CCN1`, which “outcome” value is on record?
Answer: inactive

Question: Which Potency does the source give for `CCCCCC(=O)Nc1nc2c(s1)C[C@@H]1[C@](C)(CO)[C@H](O)CC[C@@]1(C)[C@@H]2CC(=O)Nc1ccccc1` here?
Answer: inconclusive: 10 µM [inhibitor, full curve, poor fit]

Question: For `O=C(CNC(=O)c1ccc(-c2cnc3ccccc3c2)cc1)NCc1ccc(F)cc1`, which Potency is on record?
Answer: inconclusive: 35.5 µM [inhibitor, partial curve, poor fit]

Question: For `CN1CCN(c2nc3c(c(=O)[nH]2)CCN(Cc2ccc(F)c(Cl)c2)CC3)CC1`, which Potency is on record?
Answer: inconclusive: 70.8 µM [inhibitor, partial curve, poor fit]

Question: For `COc1ccc(NC(=O)C2(Cc3ccccc3)CCCCC(=O)N2)c(OC)c1` (stereo not given), which Potency is on record?
Answer: inconclusive: 35.5 µM [inhibitor, partial curve]

Question: With `O=C(NCc1ccc(F)c(F)c1)c1ccc2nnc(-c3ccc(F)cc3)n2c1` as the compound, how does the Potency read?
Answer: inconclusive: 50.1 µM [inhibitor, partial curve, poor fit]

Question: With `COc1ccc(Nc2ncc(-c3ccccc3OC)c3c2OCC3)cn1` as the compound, how does the Potency read?
Answer: inconclusive: 70.8 µM [inhibitor, partial curve, poor fit]

Question: Which Potency does the source give for `Cc1ccc(C(=O)N2CCC(Oc3ncccc3C(=O)N3CCCCC3)C2)cc1F` (stereo not given) here?
Answer: inconclusive: 28.2 µM [inhibitor, full curve]

Question: For `CN1C(=O)CCC2(CNC(=O)Cc3c[nH]c4ccccc34)CCCC=C12` (stereo not given), which Potency is on record?
Answer: inconclusive: 56.2 µM [inhibitor, partial curve, poor fit]

Question: Which “activity change, negative = cytotoxicity” value does the source give for `COc1ccc(CN2CCC3(CC2)CC(=O)c2ccccc2O3)cc1` here?
Answer: inactive: -23.6% [at 172 µM]

Question: With `COc1ccc(-c2cc(N3CCCN(C(=O)c4ccc(N(C)C)cc4)CC3)n[nH]2)cc1` as the compound, how does the Potency read?
Answer: inconclusive: 89.1 µM [inhibitor, single point]

Question: With `CCCS(=O)(=O)N1CCC(Nc2nccnc2OCC)CC1` as the compound, how does the “activity change, negative = cytotoxicity” value read?
Answer: inactive: 12.7%

Question: For `COCCN1CCOc2nc(-c3ccc(F)c(Cl)c3)ncc2C1=O`, which Potency is on record?
Answer: inconclusive: 100 µM [inhibitor, partial curve]

Question: Which Potency does the source give for `COc1ccc(CCc2nc3nccc(-c4ccsc4)n3n2)cc1` here?
Answer: inconclusive: 89.1 µM [inhibitor, single point]

Question: Which “activity change, negative = cytotoxicity” value does the source give for `CN1C(=O)CC[C@]2(C(=O)NCc3ccc4c(c3)OCO4)CCCC[C@@H]12` here?
Answer: inactive: 4.76%

Question: Which Potency does the source give for `CN(C)Cc1cc(C[C@@H]2C[C@H](NC(=O)Nc3ccc(F)cc3)C2(C)C)no1` here?
Answer: inconclusive: 112 µM [inhibitor, partial curve, poor fit]

Question: For `COc1cccc(NCc2nc3c(n2Cc2ccccc2)C(=O)N(CC2CC2)CCN3)c1`, which Potency is on record?
Answer: inconclusive: 100 µM [inhibitor, partial curve, poor fit]

Question: Which “activity change, negative = cytotoxicity” value does the source give for `O=C([C@@H]1C[C@H](Oc2ccccc2)CN1C(=O)C1CCC1)N1CCOCC1` here?
Answer: inactive: -18.6%

Question: Which “activity change, negative = cytotoxicity” value does the source give for `O=C1NC(=O)C(c2ccc(-c3ccc4nc[nH]c(=O)c4c3)cc2)N1` (stereo not given) here?
Answer: inactive: -1.45%

Question: Which Potency does the source give for `CC(C)(C)OCC(O)CN1CCC(=O)N(Cc2ccccc2)Cc2cc(F)ccc21` (stereo not given) here?
Answer: active: 44.7 µM

Question: For `COc1cccc(CN2CCCC3(COc4ccccc4C(=O)N3)C2)c1` (stereo not given), which Potency is on record?
Answer: inconclusive: 100 µM [inhibitor, partial curve, poor fit]

Question: With `Cc1cnc(C(=O)NC2C[C@H]3CC[C@@H](C2)N3C(=O)COc2ccc(Cl)cc2C)cn1` (stereo not given in full) as the compound, how does the Potency read?
Answer: inconclusive: 50.1 µM [inhibitor, partial curve, poor fit]

Question: For `O=C1CC(c2noc(-c3cc(F)ccc3Cl)n2)CN1c1ccc(F)cc1` (stereo not given), which Potency is on record?
Answer: inconclusive: 89.1 µM [inhibitor, single point]

Question: For `CC(=O)c1c(C)nn(CC(=O)NC(C)c2cnn(-c3ccccc3C)c2C)c1C` (stereo not given), which Potency is on record?
Answer: inconclusive: 89.1 µM [inhibitor, single point]

Question: Which “activity change, negative = cytotoxicity” value does the source give for `CCc1nncn1C1CCN(C(=O)c2ccc(C)c(C)c2)CC1` here?
Answer: inactive: -7.04%

Question: For `CC(C)c1cc(CNC(=O)c2ccc(OC3CCN(C(=O)C4CC4)CC3)cc2)on1`, which Potency is on record?
Answer: inconclusive: 56.2 µM [inhibitor, partial curve, poor fit]

Question: With `O=C1[C@H]2CN(Cc3ccc(Br)cc3)C[C@H]2C(=O)N1Cc1ccc2c(c1)OCO2` as the compound, how does the Potency read?
Answer: inconclusive: 89.1 µM [inhibitor, single point]

Question: Which “outcome” value does the source give for `CC(C)NC(=O)NC1CCN(Cc2ccc(-c3ccsc3)cc2)C1` (stereo not given) here?
Answer: inactive

Question: With `O=C(CCn1ccc(=O)[nH]c1=O)NC1CCCN(CCCc2ccccc2)C1` (stereo not given) as the compound, how does the “activity change, negative = cytotoxicity” value read?
Answer: inactive: -9.79%

Question: Which Potency does the source give for `COc1ccc(CNC(=O)C2CCCN(Cc3cccc(-c4cccs4)c3)C2)cc1` (stereo not given) here?
Answer: inconclusive: 50.1 µM [inhibitor, partial curve, poor fit]

Question: Which “outcome” value does the source give for `O=C1CCCCC(CNC(=O)C2CCCC2)N1` (stereo not given) here?
Answer: inactive

Question: With `O=C(NCc1cccc(F)c1)c1cnc2n1CCN(CCc1ccccc1)CC2` as the compound, how does the Potency read?
Answer: inconclusive: 44.7 µM [inhibitor, full curve]

Question: With `CCOCC(=O)N1CCC2(CC1)C(OC)CN2c1cccc(F)c1` (stereo not given) as the compound, how does the “outcome” value read?
Answer: inactive

Question: For `Cc1cnc(C(=O)N[C@@H]2CCC[C@@H]2C(=O)N2CCN(CC(C)C)CC2)cn1`, which “activity change, negative = cytotoxicity” value is on record?
Answer: inactive: 0.564%

Question: With `Cc1ccccc1CC(=O)NCc1nnc2cc(-c3nc(C4CC4)no3)ccn12` as the compound, how does the “activity change, negative = cytotoxicity” value read?
Answer: inactive: -17.7%

Question: For `CCCNS(=O)(=O)c1ccc(C(=O)NCc2cc3n(n2)CCNC3)cc1`, which “outcome” value is on record?
Answer: inactive

Question: With `Cc1cc(C[C@@H]2COC[C@@H]2NC(=O)c2ccc(-c3noc(C4CC4)n3)cc2)on1` as the compound, how does the Potency read?
Answer: inconclusive: 89.1 µM [inhibitor, single point]

Question: Which Potency does the source give for `Cc1ccc(-c2cccc(CN3C4CCC3CN(C(=O)Nc3ccccc3F)C4)c2)c(C)c1` here?
Answer: inconclusive: 56.2 µM [inhibitor, partial curve, poor fit]

Question: With `COc1ccc2nc(C[C@@H]3C[C@@H](C(C)C)[C@H](CNC4CCCCC4)C=C3C)[nH]c2c1` as the compound, how does the Potency read?
Answer: active: 28.2 µM

Question: Which Potency does the source give for `Cc1ccc(N2CCC(NC(=O)Cc3cccc(F)c3)C2=O)cc1` (stereo not given) here?
Answer: active: 25.1 µM

Question: For `O=S(=O)(c1ccccc1C(F)(F)F)N1CCC2(CCCNC2)C1` (stereo not given), which Potency is on record?
Answer: inconclusive: 100 µM [inhibitor, partial curve, poor fit]

Question: Which “activity change, negative = cytotoxicity” value does the source give for `C#CCNC(=O)c1onc(-c2ccc(F)cc2)c1[C@H](C)O` here?
Answer: inactive: -22.5% [at 230 µM]

Question: Which Potency does the source give for `COc1cc(CNCCc2ccc(F)cc2)ccc1OCC(O)CN1CCSCC1` (stereo not given) here?
Answer: inconclusive: 79.4 µM [inhibitor, partial curve, poor fit]

Question: For `COc1ccc(OC)c(NC(=O)Cn2c(-c3ccccc3)nc(C)c(CCO)c2=O)c1`, which Potency is on record?
Answer: inconclusive: 79.4 µM [inhibitor, partial curve, poor fit]

Question: For `Oc1ccc(-c2nc(C3CC3)nc3c2CCN(CC2CCCCC2)CC3)cc1`, which Potency is on record?
Answer: inconclusive: 50.1 µM [inhibitor, partial curve, poor fit]

Question: With `CC1(c2ccccc2)N(Cc2ccccc2F)C(=O)OC12CCN(C(=O)c1cnccn1)CC2` (stereo not given) as the compound, how does the “activity change, negative = cytotoxicity” value read?
Answer: inactive: -3.36%

Question: For `Cc1ccc2oc([C@H]3CCN(Cc4ccc(N(C)C)cc4)C3)nc2c1`, which Potency is on record?
Answer: inconclusive: 89.1 µM [inhibitor, partial curve, poor fit]

Question: For `CC(C)(C)CN1CCC2(CC1)Cc1ccccc1CNC2=O`, which “activity change, negative = cytotoxicity” value is on record?
Answer: inactive: -6.24%

Question: With `Cc1csc(NC(=O)[C@@H]2C[C@@H](c3ccc(F)cc3)N([S+](=O)([O-])c3ccccc3)C2)n1` as the compound, how does the Potency read?
Answer: inconclusive: 56.2 µM [inhibitor, partial curve, poor fit]

Question: With `COc1ccc(F)cc1-c1ccc(CN2CCC(NC(=O)C(C)(C)C)C2)cc1` (stereo not given) as the compound, how does the Potency read?
Answer: inconclusive: 50.1 µM [inhibitor, partial curve, poor fit]

Question: For `COc1ccc(CC(=O)N2[C@@H](c3ccccc3)[C@@H](C(=O)O)C[C@]23CCCCN(C)C3=O)cc1`, which “activity change, negative = cytotoxicity” value is on record?
Answer: inactive: -13.9%

Question: Which Potency does the source give for `CC(C)c1ccc(CNC(=O)c2ccc3c(c2)N(C)C2CCCCN2C3=O)cc1` (stereo not given) here?
Answer: inconclusive: 56.2 µM [inhibitor, partial curve, poor fit]

Question: With `CC(C)c1noc(-c2cn(C3CCN(C(=O)c4ccoc4)CC3)nn2)n1` as the compound, how does the Potency read?
Answer: inconclusive: 56.2 µM [inhibitor, partial curve, poor fit]
